These results are taken from paper PMC4336329 (PLoS ONE, 2015).

SMILES strings stand for the structures. Screen size: about 310,000 compounds; about 2,200 (0.71%) showed an effect of 50% or more. The effect is printed as a negative number. The list shows a part of the results.

Chain of human ether-à-go-go-related gene (hERG) potassium channel (Q12809 whole entry, looked up): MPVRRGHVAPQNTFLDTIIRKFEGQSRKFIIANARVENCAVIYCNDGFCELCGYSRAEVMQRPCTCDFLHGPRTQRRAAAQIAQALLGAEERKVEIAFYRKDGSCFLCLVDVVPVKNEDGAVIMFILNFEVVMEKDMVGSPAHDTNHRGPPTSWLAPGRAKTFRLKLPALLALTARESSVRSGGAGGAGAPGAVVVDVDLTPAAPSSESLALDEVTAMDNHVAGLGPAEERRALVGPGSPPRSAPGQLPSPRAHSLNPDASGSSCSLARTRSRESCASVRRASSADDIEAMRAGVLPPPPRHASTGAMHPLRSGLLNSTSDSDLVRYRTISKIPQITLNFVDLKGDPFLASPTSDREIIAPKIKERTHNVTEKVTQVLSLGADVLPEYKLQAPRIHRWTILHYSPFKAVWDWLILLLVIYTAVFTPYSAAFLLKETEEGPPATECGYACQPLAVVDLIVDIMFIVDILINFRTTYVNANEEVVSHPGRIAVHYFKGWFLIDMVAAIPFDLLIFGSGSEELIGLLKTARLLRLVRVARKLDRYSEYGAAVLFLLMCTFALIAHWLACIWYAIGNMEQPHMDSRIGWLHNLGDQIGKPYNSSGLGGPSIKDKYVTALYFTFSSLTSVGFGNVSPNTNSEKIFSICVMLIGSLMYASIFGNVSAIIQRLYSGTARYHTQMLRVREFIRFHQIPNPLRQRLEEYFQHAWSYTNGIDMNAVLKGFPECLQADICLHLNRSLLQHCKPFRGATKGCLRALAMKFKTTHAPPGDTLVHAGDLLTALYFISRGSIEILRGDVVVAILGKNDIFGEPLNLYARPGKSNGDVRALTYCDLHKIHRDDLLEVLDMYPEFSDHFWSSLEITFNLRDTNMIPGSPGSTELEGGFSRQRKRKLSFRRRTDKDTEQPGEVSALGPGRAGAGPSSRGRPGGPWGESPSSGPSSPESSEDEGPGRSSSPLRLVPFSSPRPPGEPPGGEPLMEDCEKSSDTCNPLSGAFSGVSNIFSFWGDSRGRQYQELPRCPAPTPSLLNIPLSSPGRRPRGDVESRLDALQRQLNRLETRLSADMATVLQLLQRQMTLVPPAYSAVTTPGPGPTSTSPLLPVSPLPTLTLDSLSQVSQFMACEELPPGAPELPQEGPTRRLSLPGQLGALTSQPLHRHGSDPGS

The assay has as its target human ether-à-go-go-related gene (hERG) potassium channel (human, UniProt Q12809). Description: primary screen, population patch clamp on CHO cells stably expressing hERG.
As to `O=S(=O)(Nc1ccon1)c1ccc(Br)s1`, the “hERG current change (%, negative = inhibition) at 1uM” value was determined as 13.1%.

Turning to `CCc1ccc(OCC(=O)NC(NC(=S)Nc2ccccc2)C(Cl)(Cl)Cl)cc1` (stereo not shown), the “hERG current change (%, negative = inhibition) at 1uM” value amounted to 17.9%.

On to `COC(=O)c1ccc(CSc2nnc(CNC(=O)c3ccccc3F)o2)o1`, for which the “hERG current change (%, negative = inhibition) at 1uM” value was found to be 4.91%.

For the compound `CCn1nnc2cc(C(=O)NCCc3ccccc3F)ccc21`, the “hERG current change (%, negative = inhibition) at 1uM” value is reported as 3.36%.

Regarding `COc1ccc2cnn(CCOc3cc(C)ccc3C(C)C)c(=O)c2c1OC`, the “hERG current change (%, negative = inhibition) at 1uM” value turned out to be 10.1%.

With `COc1ccccc1CNC(=O)CNCCc1ccc(OC)c(OC)c1.O=C(O)C(=O)O`, the “hERG current change (%, negative = inhibition) at 1uM” value was 10.9%.

With `O=C(Nc1cccc2c1CCCC2)c1ccccc1Cl`, the “hERG current change (%, negative = inhibition) at 1uM” value is reported as 12%.

For `CN1C(=O)N(CC(=O)Nc2sccc2C(N)=O)C(=O)C12CCCCC2`, the “hERG current change (%, negative = inhibition) at 1uM” value is listed as -0.811%.

Take `CC(=O)Nc1ccc(S(=O)(=O)NC2CCSc3ccccc32)cc1` (stereo not shown): the “hERG current change (%, negative = inhibition) at 1uM” value is 6.11%.

Turning to `Cc1c(C(=O)N2CCN(c3ccccn3)CC2)oc2c(F)cccc12`, the “hERG current change (%, negative = inhibition) at 1uM” value is 8.04%.

Consider `CC1(C)CC(=O)C(C=NCCN2CCN(C(=S)Nc3ccccc3)CC2)=C(O)C1`, for which the “hERG current change (%, negative = inhibition) at 1uM” value was -3.1%.

Turning to `O=C(Cc1csc(Nc2nc(=S)[nH]c3ccccc23)n1)NCc1ccccc1Cl`, the “hERG current change (%, negative = inhibition) at 1uM” value worked out at 11.1%.

`CCN(CC)C(=O)OCc1c(-c2ccccc2)ncc2ccccc12`: the “hERG current change (%, negative = inhibition) at 1uM” value is recorded as 10.7%.

`Cn1c(C(C#N)/C(=N\S(=O)(=O)c2cccs2)c2ccccc2)nc2ccccc21` (stereo not shown): the “hERG current change (%, negative = inhibition) at 1uM” value is given as 5.88%.

As to `CSc1nc2ccc(S(=O)(=O)N3CCCC3)cc2s1`, the “hERG current change (%, negative = inhibition) at 1uM” value was 6.32%.

In the case of `O=C(O)Cn1cc(/C=C2/SC(=O)N(CC(=O)N3CCCCCC3)C2=O)c2ccccc21`, the “hERG current change (%, negative = inhibition) at 1uM” value was 11.6%.

As to `O=S(=O)(c1ccccc1)N1CCN(Cc2cc3c(cc2Br)OCCO3)CC1`, the “hERG current change (%, negative = inhibition) at 1uM” value turned out to be 10.3%.

Take `O=C(c1ccccc1/S(=N/S(=O)(=O)c1ccccc1)N1CCOCC1)N1CCOCC1` (stereo not shown): the “hERG current change (%, negative = inhibition) at 1uM” value worked out at 8.9%.

Take `Cl.O=C(CNC1CCCCC1)NCC1(c2ccccc2)CCCC1`: the “hERG current change (%, negative = inhibition) at 1uM” value is listed as -0.785%.

For `COc1cccc(CN2CCN(Cc3ccc4cccc(F)c4n3)CC2CCO)c1` (stereo not shown), the “hERG current change (%, negative = inhibition) at 1uM” value was determined as 0.936%.

In the case of `COC(=O)c1ccc(CSc2nnc(-c3ccncc3)o2)o1`, the “hERG current change (%, negative = inhibition) at 1uM” value worked out at 11.5%.

For the compound `O=C(CSc1nnc(NC(=O)C2CCC2)s1)Nc1ccc(N2CCOCC2)cc1`, the “hERG current change (%, negative = inhibition) at 1uM” value worked out at 16.5%.

As for `O=S(=O)(NN=C1CCCCCCC1)c1ccc(Br)cc1`, the “hERG current change (%, negative = inhibition) at 1uM” value stood at 4.67%.

Turning to `O=C(CSc1nccn1Cc1ccc(F)cc1)Nc1ccc(F)cc1F`, the “hERG current change (%, negative = inhibition) at 1uM” value stood at 6.15%.

As for `CCCCOc1ccc(S(=O)(=O)NNC(=O)c2cc3ccccc3o2)cc1`, the “hERG current change (%, negative = inhibition) at 1uM” value is reported as 3.62%.

Consider `CCOc1ccccc1NC(=O)c1cccc2c1C(=O)N(CCOC)C2`, for which the “hERG current change (%, negative = inhibition) at 1uM” value is recorded as -15%.

Turning to `O=C(NC1CCS(=O)(=O)C1)c1cc(-c2ccccc2)nc2ccccc12` (stereo not shown), the “hERG current change (%, negative = inhibition) at 1uM” value stood at 14.1%.

For the compound `CC1CCN(CCCCOc2ccccc2-c2ccccc2)CC1.O=C(O)C(=O)O`, the “hERG current change (%, negative = inhibition) at 1uM” value is listed as -74.9%.

Regarding `CCOC(=O)c1cc2c(C)n(-c3ccc(OCC)cc3)c(C)c2ccc1=O`, the “hERG current change (%, negative = inhibition) at 1uM” value is 0.277%.

As to `CCOC(=O)c1sc2ccc(S(=O)(=O)N3CCCCC3)cc2c1N`, the “hERG current change (%, negative = inhibition) at 1uM” value is 8.18%.

For the compound `Cc1oc2c(CN(C)C)c(O)ccc2c(=O)c1-c1ccc2ccccc2n1`, the “hERG current change (%, negative = inhibition) at 1uM” value is recorded as -4.39%.

Consider `COC(=O)Cc1[nH]c(=O)[nH]c1C(=O)OC`, for which the “hERG current change (%, negative = inhibition) at 1uM” value is 11.3%.

For `CCSCCC(NC1=CC(=O)CC(C)(C)C1)C(=O)O` (stereo not shown), the “hERG current change (%, negative = inhibition) at 1uM” value is reported as -7.25%.

With `Cc1cccc(C(C)C)c1NC(=O)c1cccnc1`, the “hERG current change (%, negative = inhibition) at 1uM” value is recorded as 9.4%.

On to `CCCn1nnc(NC(=O)COc2ccccc2Cl)n1`, for which the “hERG current change (%, negative = inhibition) at 1uM” value came out at 11.3%.

With `CC(C1CC1)N(Cc1ccccc1)C(=O)NC(=O)c1ccccc1` (stereo not shown), the “hERG current change (%, negative = inhibition) at 1uM” value worked out at 13.3%.

As for `Cc1ccc(N(CC(=O)NCc2ccc(F)cc2)C(=O)c2csnn2)c(C)c1`, the “hERG current change (%, negative = inhibition) at 1uM” value is given as -12.3%.

Regarding `Cc1ccccc1NS(=O)(=O)c1ccc(NC(=O)N2CCCCC2)cc1`, the “hERG current change (%, negative = inhibition) at 1uM” value was 6.57%.

On to `NC(=O)C1CCN(C(=O)CCNS(=O)(=O)c2cc(Br)cnc2N)CC1`, for which the “hERG current change (%, negative = inhibition) at 1uM” value is on record as 13.5%.

On to `Cc1cc(C)nc(NC(=O)c2ccc(Br)cc2)n1`, for which the “hERG current change (%, negative = inhibition) at 1uM” value was found to be 13.6%.

Turning to `CCC/C([O-])=N\S(=O)(=O)c1ccc(N=NN(C)C)cc1.[K+]`, the “hERG current change (%, negative = inhibition) at 1uM” value worked out at 13.1%.

In the case of `CN(C)C(=O)Oc1cccc(NC(=O)c2ccccc2C(F)(F)F)c1`, the “hERG current change (%, negative = inhibition) at 1uM” value is given as 4.66%.

Consider `CCc1noc(C)c1C(=O)Nc1sc(C(=O)N(C)C)c(C)c1C#N`, for which the “hERG current change (%, negative = inhibition) at 1uM” value was determined as 18.6%.

Consider `Cc1nc2ccc(C(=O)c3ccccc3)cc2[nH]1`, for which the “hERG current change (%, negative = inhibition) at 1uM” value is 12.2%.

As for `OCCNCC(O)Cn1ccc2ccccc21` (stereo not shown), the “hERG current change (%, negative = inhibition) at 1uM” value is 10.5%.

In the case of `CCc1cccc(C)c1NC(=S)N(CCN(C)C)C(C)c1ccco1` (stereo not shown), the “hERG current change (%, negative = inhibition) at 1uM” value is on record as 0.454%.
